Source: the supplement of paper PMC4967469
IC50 is the fitted dose that halves viability relative to control wells, and lower means more sensitive; fits outside the tested doses are given as limits. AUC sums up the same curve from the lowest dose to the 256-fold higher top dose; values near 1 show little effect. For some assays here: Any top dose called inferred is not printed in the source and was worked back from the curve model. For some assays here: Where an entry number is given, a second screen of the drug exists; the two often differ.

What was measured:
Test in all cases: Viability of human cancer cell lines after 72 h of drug (GDSC screen)
KU-55933 = compound: O=c1cc(-c2cccc3c2Sc2ccccc2S3)oc(N2CCOCC2)c1 [KU-55933]; conditions: top dose 10 µM
Method: (§1)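 Human cancer cell lines in 384-well plates, medium with 10% serum, drug for 72 h over a 256-fold dose range (nine 2-fold or five 4-fold steps up to the top dose). Adherent lines were fixed and stained with the nucleic acid dye Syto60, suspension lines read with resazurin; signal relative to control wells, capped at 0 and 100%. One two-parameter sigmoid per drug and line, fitted in a mixed model over all curves with the slope shared within a line.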

ABT-888 = compound: C[C@]1(c2nc3c(C(N)=O)cccc3[nH]2)CCCN1 [ABT-888]; conditions: top dose 5 µM; top dose inferred
Method: as §1

CHIR-99021 = compound: Cc1cnc(-c2cnc(NCCNc3ccc(C#N)cn3)nc2-c2ccc(Cl)cc2Cl)[nH]1 [CHIR-99021]
Method: as §1

GSK269962A = compound: CCn1c(-c2nonc2N)nc2cnc(Oc3cccc(NC(=O)c4ccc(OCCN5CCOCC5)cc4)c3)cc21 [GSK269962A]; conditions: top dose inferred
Method: as §1

Thapsigargin = compound: C/C=C(/C)C(=O)O[C@H]1C(C)=C2[C@H]([C@@H]1OC(=O)CCCCCCC)[C@@](C)(OC(C)=O)C[C@H](OC(=O)CCC)[C@@]1(O)[C@H]2OC(=O)[C@@]1(C)O [Thapsigargin]; conditions: top dose 0.512 µM; top dose inferred
Method: as §1

CP466722 = compound: COc1cc2ncnc(-n3nc(-c4ccccn4)nc3N)c2cc1OC [CP466722]; conditions: top dose 16 µM; top dose inferred
Method: as §1

Zibotentan = compound: COc1nc(C)cnc1NS(=O)(=O)c1cccnc1-c1ccc(-c2nnco2)cc1 [Zibotentan]; conditions: top dose 20 µM; top dose inferred
Method: as §1

Cytarabine = compound: Nc1ccn([C@@H]2O[C@H](CO)[C@@H](O)[C@@H]2O)c(=O)n1 [Cytarabine]; conditions: top dose 2 µM
Method: as §1

CMK = compound: Cc1ccc(-c2c(C(=O)CCl)n(CCCO)c3ncnc(N)c23)cc1 [CMK]; conditions: top dose 4 µM; top dose inferred
Method: as §1

QL-X-138 = compound: C=CC(=O)Nc1cc(-n2c(=O)ccc3cnc4ccc(-c5cn[nH]c5)cc4c32)ccc1C [QL-X-138]; conditions: top dose 10.24 µM; top dose inferred
Method: as §1

MPS-1-IN-1 = compound: COc1cc(N2CCC(O)CC2)ccc1Nc1cc(Nc2ccccc2S(=O)(=O)C(C)C)c2cc[nH]c2n1 [MPS-1-IN-1]; conditions: top dose 20 µM; top dose inferred
Method: as §1

ABT-869 = compound: Cc1ccc(F)c(NC(=O)Nc2ccc(-c3cccc4[nH]nc(N)c34)cc2)c1 [ABT-869]; conditions: top dose 1.024 µM; top dose inferred
Method: as §1

(5Z)-7-Oxozeaenol = compound: COc1cc(O)c2c(c1)/C=C/C[C@H](O)[C@H](O)C(=O)/C=C\C[C@H](C)OC2=O [(5Z)-7-Oxozeaenol]; conditions: top dose 10 µM; top dose inferred
Method: as §1

[1] = top dose 2.56 µM, screen: GDSC drug entry 154
[2] = top dose 2.5 µM, screen: GDSC drug entry 127
[3] = top dose 5 µM, screen: GDSC drug entry 1192
[4] = top dose 10 µM, screen: GDSC drug entry 1241, top dose inferred

| Cell Line | AUC (KU-55933) | IC50 (KU-55933) | AUC (ABT-888) | IC50 (ABT-888) | AUC (CHIR-99021; [1]) | IC50 (CHIR-99021; [1]) | AUC (GSK269962A; [2]) | IC50 (GSK269962A; [2]) | AUC (Thapsigargin) | IC50 (Thapsigargin) | AUC (CP466722) | IC50 (CP466722) | AUC (Zibotentan) | IC50 (Zibotentan) | AUC (Cytarabine) | IC50 (Cytarabine) | AUC (CMK) | IC50 (CMK) | AUC (QL-X-138) | IC50 (QL-X-138) | AUC (MPS-1-IN-1) | IC50 (MPS-1-IN-1) | AUC (ABT-869) | IC50 (ABT-869) | AUC (GSK269962A; [3]) | IC50 (GSK269962A; [3]) | AUC (CHIR-99021; [4]) | IC50 (CHIR-99021; [4]) | AUC ((5Z)-7-Oxozeaenol) | IC50 ((5Z)-7-Oxozeaenol) |
| --- | --- | --- | --- | --- | --- | --- | --- | --- | --- | --- | --- | --- | --- | --- | --- | --- | --- | --- | --- | --- | --- | --- | --- | --- | --- | --- | --- | --- | --- | --- |
| MHH-NB-11 (neuroblastoma, adherent) | 0.978 | > 10 µM | 0.941 | > 5 µM | 0.981 | > 2.56 µM | 0.44 | 0.105 µM | 0.574 | 0.0522 µM | 0.82 | 10.4 µM | 0.981 | > 20 µM | 0.754 | 0.733 µM | 0.916 | > 4 µM | 0.734 | 3.21 µM | 0.75 | 7.12 µM | 0.953 | > 1.02 µM | – | – | – | – | – | – |
| NB69 (neuroblastoma, adherent) | 0.978 | > 10 µM | 0.983 | > 5 µM | 0.867 | 1.88 µM | 0.968 | > 2.5 µM | 0.145 | 0.00304 µM | 0.726 | 4.01 µM | 0.987 | > 20 µM | 0.43 | 0.0825 µM | 0.909 | > 4 µM | 0.667 | 1.75 µM | 0.785 | 7.54 µM | 0.948 | > 1.02 µM | 0.975 | > 5 µM | – | – | – | – |
| NCI-H64 (small cell lung carcinoma, suspension) | 0.992 | > 10 µM | 0.995 | > 5 µM | 0.978 | > 2.56 µM | 0.996 | > 2.5 µM | 0.206 | 0.00597 µM | 0.744 | 3.98 µM | 0.996 | > 20 µM | 0.971 | > 2 µM | 0.934 | 3.77 µM | 0.601 | 1.13 µM | 0.988 | > 20 µM | 0.995 | > 1.02 µM | – | – | – | – | – | – |
| NCI-H510A (small cell lung carcinoma, semi-adherent) | 0.982 | > 10 µM | 0.99 | > 5 µM | 0.989 | > 2.56 µM | 0.849 | 1.65 µM | 0.522 | 0.0365 µM | 0.897 | > 16 µM | 0.989 | > 20 µM | 0.781 | 0.758 µM | 0.937 | > 4 µM | 0.841 | 6.3 µM | 0.966 | > 20 µM | 0.99 | > 1.02 µM | – | – | – | – | – | – |
| NCI-SNU-16 (stomach, suspension) | 0.968 | > 10 µM | 0.988 | > 5 µM | 0.991 | > 2.56 µM | 0.976 | > 2.5 µM | 0.616 | 0.064 µM | 0.983 | > 16 µM | 0.991 | > 20 µM | 0.979 | > 2 µM | 0.952 | > 4 µM | 0.984 | > 10.2 µM | 0.989 | > 20 µM | 0.99 | > 1.02 µM | 0.923 | > 5 µM | – | – | – | – |
| OCI-AML5 (acute myeloid leukaemia, suspension) | 0.989 | > 10 µM | 0.989 | > 5 µM | 0.989 | > 2.56 µM | 0.632 | 0.349 µM | – | – | 0.622 | 2.1 µM | 0.987 | > 20 µM | 0.346 | 0.0486 µM | 0.948 | > 4 µM | 0.563 | 0.938 µM | 0.652 | 3.16 µM | 0.738 | 0.284 µM | 0.918 | > 5 µM | 0.988 | > 10 µM | 0.531 | 0.753 µM |
| SUP-HD1 (Hodgkin lymphoma, suspension) | 0.921 | > 10 µM | 0.974 | > 5 µM | 0.984 | > 2.56 µM | 0.945 | > 2.5 µM | – | – | 0.715 | 3.93 µM | 0.988 | > 20 µM | 0.976 | > 2 µM | 0.82 | 2.16 µM | 0.587 | 1.1 µM | 0.857 | 15 µM | 0.988 | > 1.02 µM | 0.98 | > 5 µM | 0.987 | > 10 µM | 0.688 | 2.05 µM |
| U-698-M (B-cell leukaemia, suspension) | 0.925 | > 10 µM | 0.987 | > 5 µM | 0.978 | > 2.56 µM | 0.976 | > 2.5 µM | – | – | 0.807 | 8.23 µM | 0.984 | > 20 µM | 0.807 | 1.03 µM | 0.934 | > 4 µM | 0.784 | 4.35 µM | 0.821 | 11.6 µM | 0.987 | > 1.02 µM | 0.885 | > 5 µM | 0.986 | > 10 µM | 0.807 | 5.14 µM |
| WIL2-NS (lymphoid neoplasm, suspension) | 0.992 | > 10 µM | 0.979 | > 5 µM | 0.992 | > 2.56 µM | 0.952 | > 2.5 µM | 0.208 | 0.00553 µM | 0.539 | 1.25 µM | 0.987 | > 20 µM | 0.76 | 0.587 µM | 0.737 | 1.01 µM | – | – | 0.796 | 7.46 µM | 0.992 | > 1.02 µM | 0.958 | > 5 µM | 0.992 | > 10 µM | 0.794 | 3.67 µM |
